We go through twelve compounds from the supplement of paper PMC4604168 (melanoma cell lines).

The other results are listed elsewhere or left out. Repeats are few or missing, and single values can be far off.
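Note: cells treated in 1,536-well plates, then fixed and DAPI-stained, with nuclei counted from automated high-throughput microscope images.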

In the assay the test system is A101D. Put plainly: cell count relative to DMSO control; melanoma cells; higher = more viable cells. Conditions: library dose: standard library concentration; 72 h.
`Nc1ncn([C@H]2C[C@H](O)[C@@H](CO)O2)c(=O)n1` [decitabine] + C=CCn1c(=O)c2cnc(Nc3ccc(N4CCN(C)CC4)cc3)nc2n1-c1cccc(C(C)(C)O)n1 [MK1775] (first compound 0.5 µM, partner dose 0.1 µM) gave a cell count of 57.6%. Under `CC(=O)O[C@@]12CO[C@@H]1C[C@H](O)[C@@]1(C)C(=O)[C@H](O)C3=C(C)[C@@H](OC(=O)[C@H](O)[C@@H](NC(=O)OC(C)(C)C)c4ccccc4)C[C@@](O)([C@@H](OC(=O)c4ccccc4)[C@H]21)C3(C)C` [Docetaxel] + COc1cc2ncnc(Nc3ccc(Oc4ccccc4)cc3)c2cc1OC [SrcI1] (first compound 0.0005 µM, partner dose 10 µM) stands 39.7%; under `CO[C@H]1C[C@@H]2CC[C@@H](C)[C@@](O)(O2)C(=O)C(=O)N2CCCC[C@H]2C(=O)O[C@H]([C@H](C)C[C@@H]2CC[C@@H](OCCO)[C@H](OC)C2)CC(=O)[C@H](C)/C=C(\C)[C@@H](O)[C@@H](OC)C(=O)[C@H](C)C[C@H](C)/C=C/C=C/C=C/1C` [everolimus] + O=C(O)c1ccc(-c2c[nH]c3ncc(-c4ccccc4)cc23)cc1C1CCCC1 [GSK650394] (first compound 0.1 µM, partner dose 0.8 µM), 75.7%. Under `CC(=O)O[C@@]12CO[C@@H]1C[C@H](O)[C@@]1(C)C(=O)[C@H](O)C3=C(C)[C@@H](OC(=O)[C@H](O)[C@@H](NC(=O)OC(C)(C)C)c4ccccc4)C[C@@](O)([C@@H](OC(=O)c4ccccc4)[C@H]21)C3(C)C` [Docetaxel] + Cn1c(=O)n(-c2ccc(C(C)(C)C#N)cc2)c2c3cc(-c4cnc5ccccc5c4)ccc3ncc21 [NVP-BEZ235] (first compound 0.0005 µM, partner dose 0.02 µM) stands 56.5%; under `Nc1ncn([C@H]2C[C@H](O)[C@@H](CO)O2)c(=O)n1` [decitabine] + Nc1cccc2c1CN(C1CCC(=O)NC1=O)C2=O [lenalidomide] (first compound 0.5 µM, partner dose 5 µM), 91.1%; under `CC(=O)O[C@@]12CO[C@@H]1C[C@H](O)[C@@]1(C)C(=O)[C@H](O)C3=C(C)[C@@H](OC(=O)[C@H](O)[C@@H](NC(=O)OC(C)(C)C)c4ccccc4)C[C@@](O)([C@@H](OC(=O)c4ccccc4)[C@H]21)C3(C)C` [Docetaxel] + Clc1ccc(Nc2nnc(Cc3ccncc3)c3ccccc23)cc1 [vatalanib] (first compound 0.0005 µM, partner dose 10 µM), 54.1%. In turn, `CC(=O)O[C@@]12CO[C@@H]1C[C@H](O)[C@@]1(C)C(=O)[C@H](O)C3=C(C)[C@@H](OC(=O)[C@H](O)[C@@H](NC(=O)OC(C)(C)C)c4ccccc4)C[C@@](O)([C@@H](OC(=O)c4ccccc4)[C@H]21)C3(C)C` [Docetaxel] + C#Cc1cccc(Nc2ncnc3cc(OCCOC)c(OCCOC)cc23)c1 [erlotinib] (first compound 0.0005 µM, partner dose 4 µM) came in with a cell count of 37.8%.

As for `CC(=O)c1c(C)c2cnc(Nc3ccc(N4CCNCC4)cn3)nc2n(C2CCCC2)c1=O` [palbociclib] + OCCn1cc(-c2cnc3nnn(Cc4ccc5ncccc5c4)c3n2)cn1 [PF04217903] (first compound 0.2 µM, partner dose 5 µM), the cell count was 66.8%.

In turn, `Nc1nc(F)nc2c1ncn2[C@@H]1O[C@H](CO)[C@@H](O)[C@@H]1O` [fludarabine] + CN(NC(=O)CC(=O)NN(C)C(=S)c1ccccc1)C(=S)c1ccccc1 [STA4783] (first compound 1 µM, partner dose 0.03 µM) displayed a cell count of 51.4%. In the case of `CC(=O)c1c(C)c2cnc(Nc3ccc(N4CCNCC4)cn3)nc2n(C2CCCC2)c1=O` [palbociclib] + C[C@]1(c2nc3c(C(N)=O)cccc3[nH]2)CCCN1 [Veliparib] (first compound 0.2 µM, partner dose 7 µM) it was 60.4%. `CO[C@H]1C[C@@H]2CC[C@@H](C)[C@@](O)(O2)C(=O)C(=O)N2CCCC[C@H]2C(=O)O[C@H]([C@H](C)C[C@@H]2CC[C@@H](OCCO)[C@H](OC)C2)CC(=O)[C@H](C)/C=C(\C)[C@@H](O)[C@@H](OC)C(=O)[C@H](C)C[C@H](C)/C=C/C=C/C=C/1C` [everolimus] + Nc1nc(F)nc2c1ncn2[C@@H]1O[C@H](CO)[C@@H](O)[C@@H]1O [fludarabine] (first compound 0.1 µM, partner dose 1 µM): the cell count was 83%. In the case of `Nc1nc(F)nc2c1ncn2[C@@H]1O[C@H](CO)[C@@H](O)[C@@H]1O` [fludarabine] + C[C@@H]1CCN(C(=O)CC#N)C[C@@H]1N(C)c1ncnc2[nH]ccc12 [CP690550] (first compound 1 µM, partner dose 5 µM) it was 77.4%.
